# Experimental data from the RNAGym collection of RNA variant scans (doi:10.7554/elife.90254).
# Read counts are not given, so values of variants with three or more changes are uncertain.
# B1: LINE1-full (parent)
# chain: UACGUAGGUGGUUUUCCCCUGAUAGUGCUAAGGGGGCCUGGAAGUUUGGACUGGGCAGAGCUCAACACAGCGUGGCAAAGUGGCUGUGGCUAGACUGCCUCUCUGGAUUCCUCGUCACUCAGCAGGGCAUCUCUGAGAGAAAUGCC
# Variants of: B1
# Test: self-cleavage, relative activity (ratio to wild type); higher = more cleavage; in vitro, sequencing; the parent is a self-cleaving ribozyme
row,Variant,self-cleavage
1,UACGUAGGUGGUCUUCCCCUGAUAGUGCUAAGGGGGCCUGGAAGUUUCGACUGGGCAGAGCUCAACACAGCGUGGCAAAGUGGCUGUGGCCAGACUGCCUCUCUGGAUUCCUCGUCACUCAGCAGGGCAUCUCUGAGAGAAAUGCC [U13C G48C U91C],0.68
2,UACGUAGGUGGUCUUCCCCUGAUAGUGCUAAGGGGGCCUGGAAGUUUUGACUGGGCAGAGCUCAACACAGCGUGGCAAAGUGGCUGUGGCUAGACAACCUCUCUGGAUUCCUCGUCACUCAGCAGGGCAUCUCUGAGAGAAAUGCC [U13C G48U U96A G97A],0.09
3,UACGUAGGUGGUCUUCCCCUGAUAGUGCUAAGGGGGCCUGGAAGUUUUGACUGGGCAGAGCUCAACACAGCGUGGCAAAGUGGCUGUGGCUAGACUGCCUCUCAGGAUUCCUCGUCACUCAGCAGGGCAUCUCUGAGAGAAAUGCC [U13C G48U U104A],1.54
4,UACGUAGGUGGUCUUCCCCUGAUAGUGCUAAGGGGGCCUGGAAGUUUGGACUAGGCAGAGUUCAACACAGCGUGGCAAAGUGGCUGUGGCUAGACUGCCUCUCUGGAUUCCUCGUCACUCAGCUGGGCAUCUCUGAGAGAAAUGCC [U13C G53A C61U A124U],0.06
5,UACGUAGGUGGUCUUCCCCUGAUAGUGCUAAGGGGGCCUGGAAGUUUGGACUGUGCAGAGCUCAACACAGCGCGGCAAAGUGGCUGUGGCUAGACUGCCUCUCUGGAUUCUUCGUCACUCAGCUGGGCAUCUCUGAGAGAAAUGCC [U13C G54U U73C C111U A124U],1.07
6,UACGUAGGUGGUCUUCCCCUGAUAGUGCUAAGGGGGCCUGGAAGUUUGGACUGGCCAGAGCUCAACACAGCGCGGCAAAGUGGCUGUGGCUAGACUGCCUCUCUGGAUUCCUCGUCACUCAGCAGGGCAUCUCUGAGAGAAAUGCC [U13C G55C U73C],0
7,UACGUAGGUGGUCUUCCCCUGAUAGUGCUAAGGGGGCCUGGAAGUUUGGACUGGGCAAAGCUCAACACAGCGUGGCAAAGUGGCUGGGGCUAGACUGCCUCUCUGGAUUCCUCGUCACUCAGCAGGGCAUCUCUGAGAGAAAUGCC [U13C G58A U87G],0.25
8,UACGUAGGUGGUCUUCCCCUGAUAGUGCUAAGGGGGCCUGGAAGUUUGGACUGGGCAAAGCUCAACACAGCGUGGCAAAGUGGCUGUGGCUAGACUGCCUCUCUGGACUCCUCGUCACUCAGCAGGGCAUCUCUGAGAGAAAUGCC [U13C G58A U108C],0.11
9,UACGUAGGUGGUCUUCCCCUGAUAGUGCUAAGGGGGCCUGGAAGUUUGGACUGGGCAGAGCUCAACACAGCGUAGCGAAGUGGCUGUGGCUAGACUGCCUCUCUGGAUUCCUCGUCACUCAGCAGGGCAUCUCUGAGAGAAAUGCC [U13C G74A A77G],0.66
10,UACGUAGGUGGUCUUCCCCUGAUAGUGCUAAGGGGGCCUGGAAGUUUGGACUGGGCAGAGCUCAACACAGCGUAGCAAAGUGGCUGUGGCUAGACUGCCUCUCUGGAUUCCUCGUCACUCAGCAGGGCAUCUCUGAGAGAAGUGCC [U13C G74A A142G],1.12
11,UACGUAGGUGGUCUUCCCCUGAUAGUGCUAAGGGGGCCUGGAAGUUUGGACUGGGCAGAGCUCAACACAGCGUGGCAAAGUAGCUGUGGCUAGACUGCCUCUCUGGAUUCCUCGUCACUCAGCAGGGCCUCUCUGAGAGAAAUGCC [U13C G82A A129C],1.73
12,UACGUAGGUGGUCUUCCCCUGAUAGUGCUAAGGGGGCCUGGAAGUUUGGACUGGGCAGAGCUCAACACAGCGUGGCAAAGUGACUGUGGCUAGUCUGCCUCUCUGGAUUCCUCGUCACUCAGCAGGGCGCCUCUGAGAGAAAUGCC [U13C G83A A94U A129G U130C],0.22
13,UACGUAGGUGGUCUUCCCCUGAUAGUGCUAAGGGGGCCUGGAAGUUUGGACUGGGCAGAGCUCAACACAGCGUGGCAAAGUGGCUGUGGCUAGACUGCCUCUCUGGAUUCCUCAUCGCUCAGCAGGGCAUCUCUGAGGGAAAUGCC [U13C G114A A117G A138G],1.41
14,UACGUAGGUGGUCUUCCCCUGAUAGUGCUAAGGGGGCCUGGAAGUUUGGACUGGGCAGAGCUCAACACAGCGUGGCAAAGUGGCUGUGGCUAGACUGCCUCUCUGGAUUCCUCAUCACUCAGCAGGGCACCUCUGAGAGAAAUGCC [U13C G114A U130C],0.87
15,UACGUAGGUGGUCUUCCCCUGAUAGUGCUAAGGGGGCCUGGAAGUUUGGACUGGGCAGAGCUCAACACAGCGUGGCAAAGUGGCUGUGGCUAGACUGCCUCUCUGGAUUCCUCGUCACUCAGCAGAGCAUCUCUGAGAGUAAUGCC [U13C G126A A140U],1.59
16,UACGUAGGUGGUCAUCCCCUGAUAGUGCUAAGGGGGCCUGGAAGUUUGGACUGGGCAGAGCUCAGCACAGCGUGGCAAAGUGGCUGUGGCUAGACUGCCUCUCAGGAUUCCUCGUCACUCAGCAGGGCAUCUCUGAGAGAAAUGCC [U13C U14A A65G U104A],0.1
17,UACGUAGGUGGUCAUCCCCUGAUAGUGCUAAGGGGGCCUGGAAGUUUGGACUGGGCAGAGCUCAACACAGCGUGGCAAAGUGGCUGUGGCUAGACUGCCUCUCUGGAUUCCUCGUCACUCAGCAGGGCAUCUCUGAGAGAAGUGCC [U13C U14A A142G],0.91
18,UACGUAGGUGGUCCUCCCCUGAUAGUGCUUAGGGGGCCUGGAAGUUUGGACUGGGCAGAGCUCAGCACAGCGUGGCAAAGUGGCUGUGGCUAGACUGCCUCUCUGGAUUCCUCGUCACUCAGCAGGGCAUCUCUGAGAGAAAUGCC [U13C U14C A30U A65G],0.36
19,UACGUAGGUGGUCCUCCCCUGAUAGUGCUAAGGGGGCCUGGAAGUUUGGACUGGGCAGAGCUCAGCACAGCGUGGCAAAGUGGCUGUGGCUAGACAGCCUCCCUGGAUUCCUCGUCACUCAGCAGGGCAUCUCUGAGAGAAGUGCC [U13C U14C A65G U96A U102C A142G],0
20,UACGUAGGUGGUCCUCCCCUGAUAGUGCUAAGGGGGCCUGGAAGUUUGGACUGGGCAGAGCUCAACACAGCGUGGCAAAGUGGCUGUGGCUAGACUGCCUCUCUGGGCUCCUCGUCACUCAGCAGGGCAUCUCUGAGAGAAAUGCC [U13C U14C A107G U108C],1.84

row,Variant,self-cleavage
1,UACGUAGGUGGUCCUCCCCUGAUAGUGCUAAGGGGGCCUGGAAGUUUGGACUGGGCAGAGCUCAACACAGCGUGGCAAAGUGGCUGUGGCUAGACUGCCUCUCUGGAUUCCUCGUCACUCAGCAGGGCAUCUCUGGGAGAAAUGCC [U13C U14C A136G],1.7
2,UACGUAGGUGGUCCUCCCCUGAUAGUGCUAAGGGGGCCUGGAAGUUUGGACUGGGCAGAGCUCAACACAGCGUGGCAAAGUGGCUGUGGCUAGACUGCCUCUCUGGAUUCCUCGUCACUAAGCAGGGCAUCUCUGAGAGAAAUGCC [U13C U14C C120A],1.1
3,UACGUAGGUGGUCCUCCCCUGAUAGUGCUAAGGGGGCCUGGAAGUUUGGACUGGGCAGAGCUCAACACAGCGUGGCAAAGUGGCUGUGACUAGACAGCCUCUCUGGACUCCUCGUCACUCAGCAGGGCAUCUCUGAGAGAAAUGCC [U13C U14C G89A U96A U108C],0.16
4,UACGUAGGUGGUCCUCCCCUGAUAGUGCUAAGGGGGCCUGGAAGUUUGGACUGGGCAGAGCUCAACACAGCGUGGCAAAGUGGCUGUGGCUAAACUGCCUCUCUGGAUUCCUCGUCACUCCGCGGGGCAUCUCUGAGAGAGACGCC [U13C U14C G93A A121C A124G A141G U143C],0.08
5,UACGUAGGUGGUCCUCCCCUGAUAGUGCUAAGGGGGCCUGGAAGUUUGGACUGGGCAGAGCUCAACACAGCGUGGCAAAGUGGCUGUGGCUAGACUGCCUCUCUGAAUUCCUCGUCACUCAGCAGGGCAUCUCUGAGAGAAAUGCC [U13C U14C G106A],1.58
6,UACGUAGGUGGUCCUCCCCCGAUAGUGCUAAGGGGGCCUGGAAGUUUGGACUGGGCAGAGCUCAACACAGCGUGGCAAAGUGGCUGUGGCUAGUCUGCCUCUCUGGAUUCCUCGUCACUCAGCAGGGAAUCUCUGAGAGAAAUGCC [U13C U14C U20C A94U C128A],0
7,UACGUAGGUGGUCCUCCCCUGAUAGUGCUAAGGGGGCCUGGAAGUUAGGACUGGGCAGAGCUCAACACAGCGUGGCAAAGUGGCUGUGGCUAGACUGCCUCUCUGGAUUCCUCGUCACUCAGCAGGGCAUCUCUGAGAGAAAUGCC [U13C U14C U47A],1.07
8,UACGUAGGUGGUCCUCCCCUGAUAGUGCUAAGGGGGCCUGGAAGUUCGGACUGGGCAGAGCUCAACACAGCGUGGCAAAGUGGCUGUGGCUAGACUGCCUCUCUGGAUUCCUCGUCACUCAGCAGGGCAUCUCUGUGAGAAAUGCC [U13C U14C U47C A136U],0
9,UACGUAGGUGGUCGUCCCCUGAUAGUGCUAAGGGGGCCUGGAAGUUUGGACUGGGCAGGGCUCAACACAGCGUGGCAAAGAGGCUGUGGCUAGACUGCCUCUCUGGAUUCCUCGUCACUCAGCAGGGCAUCUCUGAGAGAAAUGCC [U13C U14G A59G U81A],0.19
10,UACGUAGGUGGUCGUCCCCUAAUAGUGCUAAGGGGGCCUGGAAGCUUGGACUGGGCAGAGCUCAACACAGCGUGGCAAAGUGGCUGUGGCUAGACUGCCUCUCUGGAUUCCUCGUCACUCAGCAGGGCAUCUCUGAGAGAAAUGCC [U13C U14G G21A U45C],1.15
11,UACGUAGGUGGUCGUCCCCAGAUAGUGCUAAGGGGGCCUGGAAGUUUGGACUGGGCAGAGCUCAGCACAGCGUGGCAAAGUGGCUGUGGCUAGACUGCCUCUCUGGAUUCCUCGUCACUCAGCAGGGCACCUCUGAGAGAAAUGCC [U13C U14G U20A A65G U130C],0.37
12,UACGUAGGUGGUCUACCCCUGAUAUUGCUAAGGGGGCCCGGAAGUUUGGACUGGGCAGAGCUCAACACAGCGUGGCAAAGUGGCUGUGGCUAGACUGCCUCUCUGGAUUCCUCGUCACUCAGCAGGGCAUCUCUGAGAGAAAUGCC [U13C U15A G25U U39C],0.34
13,UACGUAGGUGGUCUACCCCUGAUAGUGCUAAGGGGGCCUGGAAGCUUGGACUGGGCAGAGCUCAGCACAGCAUGGCAAAGUGGCUGUGGCUAGACUGCCCCUCUGGAUUCCUCGUCACUCGGCAGGGCAUCUCUGAGAGAAAUGCC [U13C U15A U45C A65G G72A U100C A121G],0
14,UACGUAGGUGGUCUACCCCUGAUAGUGCUAAGGGGGCCUGGAAGUUUGGACCGGGCAGAGCUCAACACAGCGUGGCAAAGUGGCUGUGGCUAGACUGCCUCUCUGGAUUCCUCGUCACUCAGCGGGUCGUCUCUGAGAGAAAUGCC [U13C U15A U52C A124G G127U A129G],0.92
15,UACGUAGGUGGUCUCCCCCUGAUAGUGCUAAGGGGGCCUGGAAGUUUGGACUGGGCAGAGCUCAACACAGCGUGGCAAAGUGGCUGUGGCUAGACUGCCUCUCUGGAUUCCUCGUCACUCAGCAGGGCAUCUCUGAGGGAAAUGCC [U13C U15C A138G],1.1
16,UACGUAGGUGGUCUCCCCCUGAUAGUGCUAAGGGGGCCUGGAAGUUUGGAUUGGGCAGAGCUCAACACAGCGUGGCAAAGUGGCUGUGGCUAAACUGCCUCCCUGGAUACCUCGUCACUCAGCAGGGCACCUCUGAGAGAAAUGCC [U13C U15C C51U G93A U102C U109A U130C],0.03
17,UACGUAGGUGGUCUCCCCCUGAUAGUACUAAGGGGGCCUGGAAGUUUGGACUGGGCAGAGCUCAACACAGCGUGGCUAAGUGGCUGUGGCUAGACUGCCUCUCUGGAUUCCCCGUCACUCAGCAGGGCAUCUCUGAGAGAAAUGCC [U13C U15C G27A A77U U112C],0.99
18,UACGUAGGUGGUCUCCCCCUGAUAGUGCUAAGGGGGCCUGGAAGUUUGAACUGGGCAGAGCUCAACACAGCGUGGCAAAGUGGCUGUGGCUAGACUGCCUCUCUGGAUUCCUCGUCACUCAGCAGGGCAUCUCUGAGAGAAAUGCC [U13C U15C G49A],1.64
19,UACGUAGGUGGUCUCCCCCUGAUAGUGCUAAGGGGGCCUGGAAGUUUGGACUGGGCAGAGCUCAACACAGCGUGGCAAAGUGACUGUGGCUAGACUGCCUCUCUGGAAUCCUCGUCACUCAGCAGGGCAUCUCUGAGAGAAAUGCC [U13C U15C G83A U108A],1.05
